Sequences with one replicate were seen in a single cluster, so their values are uncertain.
What follows are sequences tested on ATP (assay: switch fluorescence ratio, 500 uM ATP over buffer (Cy3 cluster intensity, sum of 5 cycles each) (fold (ratio)); higher = stronger signal-on switching upon ATP binding; sequences stand for … in TCGTCGGCAGCGTCAGATGTGTATAAGAGACAGTTTTTTTTTTTTTTTTTTTTTTTTT…TC). Conditions: aptamer strand: ATP DNA aptamer (quencher-CACCTGGGGGAGTATTGCGGAGGAAGG + anchor), 100 nM annealed; ATP concentration: 500 uM; one replicate.
Procedure, shortened: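 Five buffer/ATP imaging cycles were run on Cy3-labelled switching-strand clusters on a modified Illumina MiSeq flow-cell, with NaOH stripping and re-annealing between cycles. In each cycle, clusters annealed to 100 nM quencher-labelled ATP aptamer were imaged in selection buffer, then after 15 min with 500 uM ATP at 22 °C. Per cluster, the fluorescence ratio is summed target-cycle over summed buffer-cycle Cy3 intensity, averaged per switch-domain sequence. Only clusters within 100-1000 RFU were kept.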
For TGCCTATGG, the switch fluorescence ratio was 1.01. In the case of TGCCTATGTG, the switch fluorescence ratio is reported as 1.04. For TGCGAAAAGA, the switch fluorescence ratio was 0.966. TGCGAGAAAG was tested, and the switch fluorescence ratio was 0.981. With TGCGAGATCT the switch fluorescence ratio was 1.04. Sequence TGCGAGGAAA has a switch fluorescence ratio of 1.06. TGCGAGTAGG was tested, and the switch fluorescence ratio was 1.05. TGCGATTCCC showed a switch fluorescence ratio of 1.26. TGCGCACCTT gave a switch fluorescence ratio of 1.02. TGCGCCCGGA was tested, and the switch fluorescence ratio was 1.03. TGCGCCGGGG was tested, and the switch fluorescence ratio was 1.03. With TGCGCGCCGT the switch fluorescence ratio was 1.02. TGCGCGCTCA showed a switch fluorescence ratio of 1. TGCGCTCATG was tested, and the switch fluorescence ratio was 1.03. TGCGGAACAG showed a switch fluorescence ratio of 0.981. TGCGGAATGA was tested, and the switch fluorescence ratio was 1.08. Sequence TGCGGAGAGC has a switch fluorescence ratio of 1.07. In the case of TGCGGAGGGA, the switch fluorescence ratio is reported as 1.11. TGCGGAGTAT was tested, and the switch fluorescence ratio was 1.04. Work on TGCGGCACTC yielded a switch fluorescence ratio of 1.14. TGCGGCTCCC was tested, and the switch fluorescence ratio was 1.01. TGCGGGTACA gave a switch fluorescence ratio of 1.04. In the case of TGCGGGTGCG, the switch fluorescence ratio is reported as 0.989. TGCGGTGCAT was tested, and the switch fluorescence ratio was 0.992. Work on TGCGGTTGCG yielded a switch fluorescence ratio of 1.02. TGCGTAAGGA gave a switch fluorescence ratio of 0.995. TGCGTATTGG was tested, and the switch fluorescence ratio was 0.995. TGCGTCCGAG showed a switch fluorescence ratio of 1.07. TGCGTCGTTC gave a switch fluorescence ratio of 1.01. Work on TGCGTTAATG yielded a switch fluorescence ratio of 0.994. TGCGTTGTCT showed a switch fluorescence ratio of 1.01. TGCGTTTCCG showed a switch fluorescence ratio of 1. TGCTAAGGG was tested, and the switch fluorescence ratio was 1.01. Work on TGCTAATCGG yielded a switch fluorescence ratio of 0.964. For TGCTAGTCAT, the switch fluorescence ratio was 1. With TGCTATTCGG the switch fluorescence ratio was 1.02. For TGCTATTTGG, the switch fluorescence ratio was 0.98. TGCTCATTCA showed a switch fluorescence ratio of 1.02. Work on TGCTCCGTTC yielded a switch fluorescence ratio of 3.52. TGCTCGGGCT gave a switch fluorescence ratio of 0.998. Sequence TGCTGAATCG has a switch fluorescence ratio of 0.996. With TGCTGCATGG the switch fluorescence ratio was 1.13. With TGCTGGAGCC the switch fluorescence ratio was 0.987. TGCTGTAA showed a switch fluorescence ratio of 1.15. With TGCTGTAGCT the switch fluorescence ratio was 1. With TGCTGTGTGC the switch fluorescence ratio was 0.978. TGCTGTTCGG showed a switch fluorescence ratio of 1.01. In the case of TGCTTAATCG, the switch fluorescence ratio is reported as 0.981. TGCTTAATCT was tested, and the switch fluorescence ratio was 0.978. TGCTTACGGC gave a switch fluorescence ratio of 1. TGCTTCAAGT showed a switch fluorescence ratio of 0.95. For TGCTTCACTG, the switch fluorescence ratio was 1.02. With TGCTTCGCGC the switch fluorescence ratio was 1.55. Sequence TGCTTGGCGG has a switch fluorescence ratio of 0.996. TGCTTGGGCT was tested, and the switch fluorescence ratio was 1.01. TGCTTTTTTA showed a switch fluorescence ratio of 0.984. Sequence TGGAAAAAAA has a switch fluorescence ratio of 1.02. TGGAAACATC was tested, and the switch fluorescence ratio was 1.04. Work on TGGAAACGC yielded a switch fluorescence ratio of 1.27. Work on TGGAAAGAGT yielded a switch fluorescence ratio of 1.02. With TGGAAAGGCT the switch fluorescence ratio was 0.981. Sequence TGGAAAGTAT has a switch fluorescence ratio of 1.01. Work on TGGAACAGAG yielded a switch fluorescence ratio of 1.03. In the case of TGGAAGAAAA, the switch fluorescence ratio is reported as 0.998. TGGAAGCATT gave a switch fluorescence ratio of 0.964. With TGGAATACTA the switch fluorescence ratio was 1.23. In the case of TGGAATGCAA, the switch fluorescence ratio is reported as 1.09. TGGACAATT was tested, and the switch fluorescence ratio was 1.02. Sequence TGGACAGTGC has a switch fluorescence ratio of 1. TGGACCACTT gave a switch fluorescence ratio of 1.01. TGGACCGAAT was tested, and the switch fluorescence ratio was 1.03. TGGACCTGCT was tested, and the switch fluorescence ratio was 1.03. TGGACGCCTT was tested, and the switch fluorescence ratio was 0.989. For TGGACTAGTA, the switch fluorescence ratio was 0.982. With TGGAGAATGG the switch fluorescence ratio was 0.959. TGGAGCCTT gave a switch fluorescence ratio of 1.02. Sequence TGGAGCGTGG has a switch fluorescence ratio of 0.993. Sequence TGGAGCTACT has a switch fluorescence ratio of 2.43. With TGGAGCTCAA the switch fluorescence ratio was 1.06. With TGGAGGCTGC the switch fluorescence ratio was 1.02. In the case of TGGAGTACCT, the switch fluorescence ratio is reported as 1.84. With TGGAGTATCT the switch fluorescence ratio was 1.05. For TGGAGTTCGG, the switch fluorescence ratio was 0.985. Work on TGGATAACCC yielded a switch fluorescence ratio of 0.985. For TGGATACTCG, the switch fluorescence ratio was 1.11. For TGGATCAGT, the switch fluorescence ratio was 1.04. Work on TGGATCTAAT yielded a switch fluorescence ratio of 1.01. TGGATGAATC gave a switch fluorescence ratio of 0.978. TGGATGAGAC was tested, and the switch fluorescence ratio was 0.964. TGGATGGATG was tested, and the switch fluorescence ratio was 1.06. Work on TGGATTACTA yielded a switch fluorescence ratio of 0.98. Sequence TGGATTCCTT has a switch fluorescence ratio of 0.989. In the case of TGGCAAGCTT, the switch fluorescence ratio is reported as 1.3. Work on TGGCACCCGC yielded a switch fluorescence ratio of 0.983. Sequence TGGCAGGTCC has a switch fluorescence ratio of 1.24. For TGGCCAAGGC, the switch fluorescence ratio was 1.02. TGGCCGAACT showed a switch fluorescence ratio of 1.04. With TGGCCGAGAA the switch fluorescence ratio was 0.985. In the case of TGGCCGCTCC, the switch fluorescence ratio is reported as 1.29. With TGGCCGGGAC the switch fluorescence ratio was 1.03. Sequence TGGCCTAAGT has a switch fluorescence ratio of 0.987. For TGGCCTATAA, the switch fluorescence ratio was 1.02. TGGCCTATGC gave a switch fluorescence ratio of 0.999. With TGGCCTTAAA the switch fluorescence ratio was 0.962. Sequence TGGCCTTTTT has a switch fluorescence ratio of 0.978. With TGGCGATTCG the switch fluorescence ratio was 0.986. Sequence TGGCGTAAGA has a switch fluorescence ratio of 0.979. TGGCGTAGCA gave a switch fluorescence ratio of 0.941. TGGCGTGACC was tested, and the switch fluorescence ratio was 0.989. With TGGCGTGGAC the switch fluorescence ratio was 0.992. Sequence TGGCTACGTA has a switch fluorescence ratio of 0.963. Sequence TGGCTCCG has a switch fluorescence ratio of 1.09. Sequence TGGCTGCTCC has a switch fluorescence ratio of 1.1. Work on TGGCTTTGGC yielded a switch fluorescence ratio of 0.944. TGGGAAATTC showed a switch fluorescence ratio of 1.02. TGGGAAGCGG showed a switch fluorescence ratio of 0.989. With TGGGACGGGA the switch fluorescence ratio was 1.02. Work on TGGGACTCTA yielded a switch fluorescence ratio of 1.02. In the case of TGGGACTTGC, the switch fluorescence ratio is reported as 0.967. In the case of TGGGATAGCC, the switch fluorescence ratio is reported as 1.07. With TGGGATCACT the switch fluorescence ratio was 0.963. TGGGATTTAA gave a switch fluorescence ratio of 0.977. Sequence TGGGCAAAGG has a switch fluorescence ratio of 1. Work on TGGGCCGAAC yielded a switch fluorescence ratio of 0.989. In the case of TGGGCCGCTG, the switch fluorescence ratio is reported as 0.989. With TGGGCCTGCG the switch fluorescence ratio was 1.06. TGGGCGACAT gave a switch fluorescence ratio of 1.01. For TGGGCGAGGG, the switch fluorescence ratio was 0.979. In the case of TGGGCGCTGG, the switch fluorescence ratio is reported as 0.968. TGGGCGTC showed a switch fluorescence ratio of 1.02. TGGGCTACAA gave a switch fluorescence ratio of 1.05. Sequence TGGGCTACGT has a switch fluorescence ratio of 1.01. Work on TGGGCTCGCT yielded a switch fluorescence ratio of 1. TGGGCTCTAG showed a switch fluorescence ratio of 0.979. In the case of TGGGGAGGTG, the switch fluorescence ratio is reported as 0.968. With TGGGGCACCT the switch fluorescence ratio was 0.984. Work on TGGGGCCAGC yielded a switch fluorescence ratio of 0.959. TGGGGCG showed a switch fluorescence ratio of 1.15. TGGGGCGGTC gave a switch fluorescence ratio of 1.06. TGGGGGATT was tested, and the switch fluorescence ratio was 0.976. Work on TGGGGGCTGA yielded a switch fluorescence ratio of 1.04. Sequence TGGGGTAGTA has a switch fluorescence ratio of 0.902. For TGGGGTCGA, the switch fluorescence ratio was 0.981. In the case of TGGGGTCTTC, the switch fluorescence ratio is reported as 0.973. In the case of TGGGGTGCC, the switch fluorescence ratio is reported as 0.987. TGGGTACGAA was tested, and the switch fluorescence ratio was 0.981. Work on TGGGTAGGCC yielded a switch fluorescence ratio of 1.08. TGGGTCCGAT was tested, and the switch fluorescence ratio was 0.969. In the case of TGGGTCTACG, the switch fluorescence ratio is reported as 1.01. TGGGTCTGG showed a switch fluorescence ratio of 1. TGGGTGCGGG was tested, and the switch fluorescence ratio was 0.942. Sequence TGGGTGTAAG has a switch fluorescence ratio of 0.988. Work on TGGGTGTTAT yielded a switch fluorescence ratio of 0.987. For TGGGTTCTGC, the switch fluorescence ratio was 1.07. With TGGGTTGAA the switch fluorescence ratio was 0.982. Sequence TGGGTTGCAA has a switch fluorescence ratio of 0.973. Work on TGGGTTGTTC yielded a switch fluorescence ratio of 1.05. In the case of TGGTAAATGA, the switch fluorescence ratio is reported as 1. With TGGTACCTTC the switch fluorescence ratio was 1.11. TGGTAGCTTA gave a switch fluorescence ratio of 1.01. Sequence TGGTATACGC has a switch fluorescence ratio of 1.04. TGGTATTCCT showed a switch fluorescence ratio of 1.03. TGGTATTTGT gave a switch fluorescence ratio of 1.01. TGGTCACTTC was tested, and the switch fluorescence ratio was 1.01. Sequence TGGTCAGTTT has a switch fluorescence ratio of 0.957. For TGGTCATCCG, the switch fluorescence ratio was 1.01. Work on TGGTCGGTAC yielded a switch fluorescence ratio of 1.11. TGGTCTACTC was tested, and the switch fluorescence ratio was 1. TGGTGAAGTG gave a switch fluorescence ratio of 0.993. In the case of TGGTGAGCCG, the switch fluorescence ratio is reported as 1.01. With TGGTGAGTAC the switch fluorescence ratio was 0.809. Work on TGGTGCATCA yielded a switch fluorescence ratio of 0.998. In the case of TGGTGCCACG, the switch fluorescence ratio is reported as 0.982. Sequence TGGTGCCTGA has a switch fluorescence ratio of 0.999. Work on TGGTGCTCCT yielded a switch fluorescence ratio of 1.05. With TGGTGGATAT the switch fluorescence ratio was 1.03. For TGGTGGCACA, the switch fluorescence ratio was 0.98. Work on TGGTGGCAGG yielded a switch fluorescence ratio of 1.02. TGGTGGGAGA was tested, and the switch fluorescence ratio was 0.982. Sequence TGGTGGTCTT has a switch fluorescence ratio of 0.976. For TGGTGTCCCC, the switch fluorescence ratio was 1.05. TGGTGTGACC showed a switch fluorescence ratio of 1.04. TGGTGTGTAT was tested, and the switch fluorescence ratio was 0.947. TGGTTAGAAC showed a switch fluorescence ratio of 1.01. TGGTTATAGG showed a switch fluorescence ratio of 0.982. For TGGTTCCCGC, the switch fluorescence ratio was 1.1. With TGGTTGAAGA the switch fluorescence ratio was 1.01. Work on TGGTTGTGGT yielded a switch fluorescence ratio of 0.947. TGGTTTAGCC showed a switch fluorescence ratio of 0.942. In the case of TGGTTTATAG, the switch fluorescence ratio is reported as 1. TGGTTTGACA was tested, and the switch fluorescence ratio was 0.925. Work on TGTAAAGAGG yielded a switch fluorescence ratio of 0.999. For TGTAAAGCCT, the switch fluorescence ratio was 1.14. TGTAAATCAT gave a switch fluorescence ratio of 0.986. Sequence TGTAAGTTGC has a switch fluorescence ratio of 0.965. Work on TGTAATTCCG yielded a switch fluorescence ratio of 0.985. Sequence TGTACGAAAT has a switch fluorescence ratio of 1.06. With TGTAGGAGAG the switch fluorescence ratio was 0.99. Work on TGTAGTAGGG yielded a switch fluorescence ratio of 0.963. For TGTATCTTTT, the switch fluorescence ratio was 0.982. Sequence TGTATTACCG has a switch fluorescence ratio of 1.01.

— the supplement of paper PMC10126150
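Also: ATP exposure 15 min at 22 °C before imaging.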
